# Test results taken from PubChem BioAssay AID504333 (National Center for Advancing Translational Sciences (NCATS), 2011).
# The whole screen tested about 360,000 compounds, of which about 16,000 (4.4%) were called active. Inconclusive results, whose numbers are uncertain, are shown with a selection of clear calls. Calls follow the shape of the dose curve; as a rule, active = well fitted inhibition curve with a large enough effect; inconclusive = small, poorly fitted or top-dose-only effect; inactive = no such curve, though single readings can be large or run the other way. Potencies beside an inconclusive call are fits to weak or partial responses and may not hold up.
# Target: Bromodomain adjacent to zinc finger domain protein 2B (Homo sapiens) (UniProt Q9UIF8)
# UniProt Q9UIF8, sequence (Q9UIF8 whole entry, looked up, the tested form may be a part): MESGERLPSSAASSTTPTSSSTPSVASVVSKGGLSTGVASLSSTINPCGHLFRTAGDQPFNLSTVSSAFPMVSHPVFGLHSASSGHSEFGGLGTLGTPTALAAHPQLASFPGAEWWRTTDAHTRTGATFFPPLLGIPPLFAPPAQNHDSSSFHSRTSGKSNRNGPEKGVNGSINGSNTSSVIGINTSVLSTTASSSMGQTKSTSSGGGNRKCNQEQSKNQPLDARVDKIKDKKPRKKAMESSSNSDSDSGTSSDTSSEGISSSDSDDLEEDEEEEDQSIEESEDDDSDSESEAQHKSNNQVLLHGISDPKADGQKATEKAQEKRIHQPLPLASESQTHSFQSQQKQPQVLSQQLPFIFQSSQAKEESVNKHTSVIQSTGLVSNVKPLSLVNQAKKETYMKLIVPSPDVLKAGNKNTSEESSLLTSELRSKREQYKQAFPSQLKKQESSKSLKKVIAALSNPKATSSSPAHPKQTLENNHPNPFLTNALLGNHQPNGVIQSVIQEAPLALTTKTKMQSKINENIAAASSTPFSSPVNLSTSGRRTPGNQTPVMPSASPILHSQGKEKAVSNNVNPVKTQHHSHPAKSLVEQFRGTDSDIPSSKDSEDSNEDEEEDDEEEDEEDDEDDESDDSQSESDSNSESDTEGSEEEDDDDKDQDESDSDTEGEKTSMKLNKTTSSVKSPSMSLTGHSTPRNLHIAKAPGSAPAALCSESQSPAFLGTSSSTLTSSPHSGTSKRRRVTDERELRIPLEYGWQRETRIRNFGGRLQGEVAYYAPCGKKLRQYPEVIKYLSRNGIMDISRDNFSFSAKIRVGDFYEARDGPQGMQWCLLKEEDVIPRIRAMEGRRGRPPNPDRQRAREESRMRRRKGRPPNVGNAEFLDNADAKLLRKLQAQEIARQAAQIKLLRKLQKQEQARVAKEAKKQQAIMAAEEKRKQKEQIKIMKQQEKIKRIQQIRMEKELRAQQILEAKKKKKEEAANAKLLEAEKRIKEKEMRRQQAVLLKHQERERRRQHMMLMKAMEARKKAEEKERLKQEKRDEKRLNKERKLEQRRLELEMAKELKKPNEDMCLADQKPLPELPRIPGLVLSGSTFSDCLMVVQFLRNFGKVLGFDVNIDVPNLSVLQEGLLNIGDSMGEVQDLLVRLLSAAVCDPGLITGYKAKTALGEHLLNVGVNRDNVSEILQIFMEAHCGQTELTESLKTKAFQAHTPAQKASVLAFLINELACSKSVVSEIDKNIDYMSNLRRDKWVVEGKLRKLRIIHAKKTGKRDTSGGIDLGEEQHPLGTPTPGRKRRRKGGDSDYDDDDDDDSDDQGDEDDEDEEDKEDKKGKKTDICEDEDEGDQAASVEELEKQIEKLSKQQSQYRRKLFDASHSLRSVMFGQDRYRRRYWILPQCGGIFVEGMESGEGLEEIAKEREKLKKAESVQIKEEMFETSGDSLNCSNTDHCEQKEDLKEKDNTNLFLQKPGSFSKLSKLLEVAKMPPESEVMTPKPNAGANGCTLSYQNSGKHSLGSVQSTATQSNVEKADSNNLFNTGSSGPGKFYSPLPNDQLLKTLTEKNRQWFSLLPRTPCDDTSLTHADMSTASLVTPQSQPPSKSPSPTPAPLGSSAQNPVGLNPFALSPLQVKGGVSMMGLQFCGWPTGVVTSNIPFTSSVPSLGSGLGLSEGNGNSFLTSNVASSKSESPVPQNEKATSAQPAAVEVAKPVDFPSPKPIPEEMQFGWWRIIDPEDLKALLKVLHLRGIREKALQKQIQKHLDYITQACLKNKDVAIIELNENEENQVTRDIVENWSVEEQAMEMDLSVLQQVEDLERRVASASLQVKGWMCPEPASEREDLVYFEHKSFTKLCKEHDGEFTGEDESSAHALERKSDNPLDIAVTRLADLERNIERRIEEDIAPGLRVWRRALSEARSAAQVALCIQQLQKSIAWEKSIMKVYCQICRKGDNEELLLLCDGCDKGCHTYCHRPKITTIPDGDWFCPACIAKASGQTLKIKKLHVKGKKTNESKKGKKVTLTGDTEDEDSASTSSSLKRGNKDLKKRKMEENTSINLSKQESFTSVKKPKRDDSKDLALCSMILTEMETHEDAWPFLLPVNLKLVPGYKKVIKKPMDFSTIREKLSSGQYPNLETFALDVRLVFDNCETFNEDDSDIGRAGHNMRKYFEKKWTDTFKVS
# Experiment: qHTS Assay for Inhibitors of BAZ2B; also: nearly all actives have a fitted effect of over 60% in size
# Conditions: AlphaScreen BAZ2B-H3K14Ac peptide displacement; activity change, negative = inhibition: at 114 µM (top of the series) unless noted
# Method in brief: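 BAZ2B (50 nM) with biotin-H3(5-23)K14Ac peptide (50 nM) in PBS pH 7.4, 0.01% Tween-20, preformed 30 min, then compound 30 min at room temperature; top concentration 110uM. AlphaScreen streptavidin donor/nickel chelate acceptor beads (10 ug/mL final), 20 min dark, signal read.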
# % is scaled to controls: 0 for no effect and ±100 for the full control effect; potency is read from the fitted curve at half-maximal effect; tags tell the direction and shape of the fitted curve.
Structure (SMILES),Potency,"activity change, negative = inhibition"
CCn1c(C)cc(/C=C2/SC(=O)N(C(C)C(=O)OC)C2=O)c1C (stereo not drawn),"inconclusive: 50.1 µM [inhibitor, partial curve]",–
C=CCN(CC=C)S(=O)(=O)c1ccc(F)cc1,"inconclusive: 89.1 µM [inhibitor, single point]",–
CC(OC(=O)CCNS(=O)(=O)c1cccs1)C(=O)Nc1ccc(S(N)(=O)=O)cc1 (stereo not drawn),–,inactive: 13.6%
CC(C)(C)c1ccc(-c2nc(C#N)c(N3CCC(C(N)=O)CC3)o2)cc1,"inconclusive: 44.7 µM [inhibitor, partial curve]",–
O=C(NCCCn1ccnc1)c1noc2c1CCc1ccccc1-2,"inconclusive: 79.4 µM [inhibitor, single point]",–
CC1(C)Cc2c(c(N3CCOCC3)nc3snc(N)c23)CO1,–,inactive: 7.43%
O=C(Nc1cccc(-c2nn[nH]n2)c1)c1csc2c1CCCC2,"inconclusive: 44.7 µM [inhibitor, partial curve]",–
O=C(C[n+]1ccccc1)N/N=C/c1cc(Br)ccc1O,active: 10 µM,–
CCOc1ccccc1CN(CCc1ccc2c(c1)OCO2)Cc1ccccn1,active: 35.5 µM,–
O=C(O)CCc1ccc(-c2ccc(Cl)cc2)n1CC(=O)Nc1ccccc1,"inconclusive: 50.1 µM [inhibitor, partial curve, poor fit]",–
O=C(O)CCCN1C(=O)c2ccc(Oc3cccc([N+](=O)[O-])c3)cc2C1=O,–,inactive: -4.98%
COc1cccc(CN2CC(C(=O)NCc3ncc(C)[nH]3)CCC2=O)c1 (stereo not drawn),"inconclusive: 35.5 µM [inhibitor, single point]",–
COc1cc(S(=O)(=O)N(Cc2cccnc2)Cc2cccc(OC)c2OC)ccc1-n1cnnn1,active: 79.4 µM,–
Cc1cc(C(=O)N2CCN(c3ccc([N+](=O)[O-])cc3)CC2)c(C)o1,"inconclusive: 50.1 µM [inhibitor, partial curve]",–
Cc1ccc(C(=O)c2cn(Cc3cccc(C)c3)c3nc(C)ccc3c2=O)cc1,–,inactive: -16.7%
O=c1c2cnn(-c3ccc(F)cc3)c2ncn1Cc1cccc(Cl)c1,–,inactive: 1.42%
CC(=O)c1ccccc1OCC(O)CN1CCN(c2ccccn2)CC1 (stereo not drawn),–,inactive: -30.5%
O=c1[nH][nH]c(-c2ccccc2)c1C=Nc1ccc(OC(F)(F)F)cc1,"inconclusive: 79.4 µM [inhibitor, partial curve]",–
Nc1ncnc(Sc2ncccn2)c1[N+](=O)[O-],active: 79.4 µM,–
CN(C)c1ccc(C(CNC(=O)c2ccc(-c3ccccc3)cc2)N2CCOCC2)cc1 (stereo not drawn),active: 35.5 µM,–
CCCN(CCC)C(=O)Cn1nnc2sc(-c3ccccc3)cc2c1=O,"inconclusive: 89.1 µM [inhibitor, single point]",–
Cc1cc(Br)ccc1OCCCCN1CCC(C)CC1,"inconclusive: 89.1 µM [inhibitor, single point]",–
CCC(c1nnnn1CCOC)N1CCN(c2cccc(C(F)(F)F)c2)CC1 (stereo not drawn),"inconclusive: 89.1 µM [inhibitor, single point]",–
O=[N+]([O-])c1ccc(N/N=C/c2ccc[nH]2)cc1,active: 44.7 µM,–
O=C(CSc1nccn1-c1ccccc1)NO,"inconclusive: 89.1 µM [inhibitor, single point]",–

Structure (SMILES),Potency,"activity change, negative = inhibition"
CC(C)n1c(-c2ccc(N(C)C)cc2)nc2ccccc21,active: 39.8 µM,–
CCCCN(C(=O)COC(=O)COc1c(C)cc(C)cc1C)c1c(N)n(CCC)c(=O)[nH]c1=O,–,inactive: 7.76%
CC1CCN(c2ccc(NC(=S)NC(=O)c3ccc(-c4cccc([N+](=O)[O-])c4)o3)cc2)CC1,"inconclusive: 8.91 µM [inhibitor, full curve, poor fit]",–
CC1CN(C(=O)N2CCC(C(=O)N3CCN(c4ccccc4)CC3)CC2)c2cc(Cl)ccc2O1 (stereo not drawn),"inconclusive: 79.4 µM [inhibitor, single point]",–
CCc1ccc(NC(=O)CSc2nnc(-c3ccco3)o2)cc1,–,inactive: -4.38%
CC(C)c1nc2sc3c(=O)[nH]c(=S)[nH]c3c2c2c1CCC2,"inconclusive: 79.4 µM [inhibitor, single point]",–
CCN(CC)S(=O)(=O)c1cc([N+](=O)[O-])ccc1NNC(=O)Nc1ccccc1OC,"inconclusive: 10 µM [inhibitor, full curve]",–
CC(C)c1ccc(NC2CCCN(C(=O)c3ccc4nccnc4c3)C2)cc1 (stereo not drawn),–,inactive: -26.2%
Cc1cc(NC(=O)c2cc(-c3ccccn3)nc3ccc(Br)cc23)no1,active: 70.8 µM,–
Cc1ccc(-c2nc3ncccn3c2Nc2ccc3c(c2)OCCO3)o1,"inconclusive: 79.4 µM [inhibitor, single point]",–
COc1ccc(C(=O)COC(=O)CCNS(=O)(=O)c2ccccc2)c(OC)c1,"inconclusive: 89.1 µM [inhibitor, single point]",–
CC(=O)Nc1nc(C)cs1,–,inactive: -14.3%
CCC(=O)NC(NC(=S)Nc1cccc2cccnc12)C(Cl)(Cl)Cl (stereo not drawn),"inconclusive: 89.1 µM [inhibitor, single point]",–
Cc1ccc2c(CC(=O)Nc3ccc(S(=O)(=O)N4CCCCC4C)cc3)coc2c1 (stereo not drawn),–,inactive: -22.1%
Cc1ccc(NC(=O)CCC(=O)c2cccs2)nc1,"inconclusive: 89.1 µM [inhibitor, single point]",–
Cc1ccc(C(=O)NC(=S)Nc2cccc3c(C)cc(C)nc23)cc1,"inconclusive: 39.8 µM [inhibitor, full curve, poor fit]",–
COc1cccc(NC(=O)CN2C(=O)CSc3ccc(S(=O)(=O)N4CCCC4)cc32)c1,"inconclusive: 79.4 µM [inhibitor, single point]",–
Cc1ccc(S(=O)(=O)N2CCN(C)CC2)cc1-c1nnc2c3ccccc3c(C)nn12,–,inactive: 10.6%
COc1ccc(C(=O)NC(=S)N2CCOCC2)cc1[N+](=O)[O-],–,inactive: -16%
COc1ccc(OC)c(C(=O)NC(CC(N)=O)c2ccc(N3CCCCCC3)c([N+](=O)[O-])c2)c1 (stereo not drawn),active: 50.1 µM,–
COCCCNC(=O)C1CCN(C(=O)c2cnn(-c3ccccc3)c2-n2cccc2)CC1,–,inactive: -0.105%
CC(C)CC(=O)Nc1nc2nc(-c3ccccc3)cc(=O)n2[nH]1,active: 50.1 µM,–
CCCCOc1ccc(C2=NC(c3cccs3)=Nc3ccc(CC)cc3N2)cc1,"inconclusive: 6.31 µM [inhibitor, full curve]",–
CCc1ccc2[nH]c(=O)c(CN(CCN(C)C)C(=S)NCc3ccco3)cc2c1,–,inactive: -36.2%
Cc1cc(C)c2nc(N3CCC(C(=O)N4CCN(C(=O)c5ccco5)CC4)CC3)sc2c1,"inconclusive: 70.8 µM [inhibitor, single point]",–

Structure (SMILES),Potency,"activity change, negative = inhibition"
CN(C)c1ccc(C(CNC(=O)COc2ccc(Cl)cc2)N2CCCC2)cc1 (stereo not drawn),active: 35.5 µM,–
O=C(Oc1ccc[nH]c1=O)c1cc([N+](=O)[O-])cc([N+](=O)[O-])c1,"inconclusive: 79.4 µM [inhibitor, single point]",–
CCC(C)[C@H](N)c1nnc(SCc2cccc(F)c2)o1 (stereo partly drawn),"inconclusive: 79.4 µM [inhibitor, single point]",–
COc1cccc(CNC(=O)C(C)n2ncn3cccc3c2=O)c1OC (stereo not drawn),"inconclusive: 79.4 µM [inhibitor, single point]",–
COCCN(C(=S)Nc1c(C)cccc1C)C(C)c1cccnc1 (stereo not drawn),–,inactive: -3.31%
CCOc1ccc(-c2cn(-c3ccc(C)cc3)c(SCC(=O)Nc3ccc(C)cc3)n2)cc1,"inconclusive: 25.1 µM [inhibitor, full curve]",–
Cc1cc(C)nc(Nc2cccc3ccccc23)n1,–,inactive: -11.6%
CC1CCc2c(sc(NC(=O)c3cc(-c4cccc(Cl)c4)on3)c2C(N)=O)C1 (stereo not drawn),–,inactive: -2.77%
Cc1occc1C(=O)N/N=C/c1ccccn1,"inconclusive: 89.1 µM [inhibitor, single point]",–
Cc1ccc(COc2ccc(-c3cc(C(F)(F)F)n4nc(C)cc4n3)cc2)cc1,–,inactive: -20.3%
Fc1ccc(-c2ccc(CNCCSc3nnnn3-c3ccccc3)o2)cc1,active: 35.5 µM,–
O=C(NCC(c1ccco1)N1CCCC1)c1sc2ccccc2c1Cl (stereo not drawn),"inconclusive: 50.1 µM [inhibitor, partial curve]",–
COc1ccc(CNS(=O)(=O)c2cc3c4c(c2)CCN4C(=O)CC3)cc1,"inconclusive: 89.1 µM [inhibitor, single point]",–
O=C(CSc1nc2c([nH]c3ccccc32)c(=O)n1-c1cccc(Cl)c1)NCC1CCCO1 (stereo not drawn),–,inactive: 12.9%
CC1(C)CC(Nc2ccc(Nc3ccccc3)cc2)CC(C)(C)N1,active: 35.5 µM,–
Cc1c(Br)c([N+](=O)[O-])nn1CCCC(=O)Nc1sc2c(c1C(N)=O)CCC(C)C2 (stereo not drawn),–,inactive: 4.65%
CCOc1ccccc1CN1CCNC(=O)C1CC(=O)NCCCn1cccn1 (stereo not drawn),"inconclusive: 35.5 µM [inhibitor, partial curve]",–
O=C(Cn1ncc2ccsc2c1=O)N1CCN(c2ccc(F)cc2)CC1,–,inactive: -11.1%
O=C(NCCCN1CCOCC1)c1ccc2c(=O)n(Cc3cccc(Br)c3)c(=S)[nH]c2c1,–,inactive: -24.4%
COC(=O)c1ccc(N2CCC(c3cc(-c4ccc(OC)cc4)n[nH]3)CC2)c([N+](=O)[O-])c1,"inconclusive: 22.4 µM [inhibitor, full curve]",–
O=C1N=c2ccccc2=C1c1sc(NS(=O)(=O)Cc2ccccc2)nc1O,"inconclusive: 89.1 µM [inhibitor, single point]",–
O=C(CN1C(=O)/C(=C/c2ccc(F)cc2)SC1=S)N1CCN(CCc2ccccn2)CC1,"inconclusive: 20 µM [inhibitor, full curve, poor fit]",–
CCOc1cc(C2C3=C(CCCC3=O)OC3=C2C(=O)CCC3)cc([N+](=O)[O-])c1O,"inconclusive: 50.1 µM [inhibitor, partial curve]",–
